According to the supplement of paper PMC4967469:

What was measured:
Assay in all cases: Viability of human cancer cell lines after 72 h of drug (GDSC screen)
[1] = compound: C=CCNC1=C2C[C@@H](C)C[C@H](OC)[C@H](O)[C@@H](C)/C=C(\C)[C@H](OC(N)=O)[C@@H](OC)/C=C\C=C(/C)C(=O)NC(=CC1=O)C2=O [17-AAG]; details: top dose 1 µM
Protocol: (§1)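 Human cancer cell lines in 384-well plates, medium with 10% serum, drug for 72 h over a 256-fold dose range (nine 2-fold or five 4-fold steps up to the top dose). Adherent lines were fixed and stained with the nucleic acid dye Syto60, suspension lines read with resazurin; signal relative to control wells, capped at 0 and 100%. One two-parameter sigmoid per drug and line, fitted in a mixed model over all curves with the slope shared within a line.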

[2] = compound: CCc1cc(-c2n[nH]c(C)c2-c2ccc3c(c2)OCCO3)c(O)cc1O [CCT018159]; details: top dose 10 µM; top dose inferred
Protocol: as §1

[3] = compound: CN(C)Cc1cccc(N=C(c2ccccc2)c2c(O)[nH]c3cc(C(=O)N(C)C)ccc23)c1 [BIX02189]; details: top dose 20 µM; top dose inferred
Protocol: as §1

[4] = compound: COC(=O)CNC(=O)C(=O)OC [Dimethyloxalylglycine]; details: top dose 4000 µM; top dose inferred
Protocol: as §1

[5] = compound: COc1cccc2cc(-c3nc([C@H]4CC[C@H](C(=O)O)CC4)n4ncnc(N)c34)[nH]c12 [OSI-027]; details: top dose 20 µM
Protocol: as §1

[6] = compound: CS(=O)(=O)c1ccc(C(=O)Nc2ccc(Cl)c(-c3ccccn3)c2)c(Cl)c1 [Vismodegib]; details: top dose 10 µM; top dose inferred
Protocol: as §1

[7] = compound: Cc1cnc(Nc2ccc(F)cc2Cl)nc1-c1c[nH]c(C(=O)N[C@H](CO)c2cccc(Cl)c2)c1 [VX-11e]; details: top dose 5.12 µM; top dose inferred
Protocol: as §1

[8] = compound: Cc1cnc(Nc2ccc(OCCN3CCCC3)cc2)nc1Nc1cccc(S(=O)(=O)NC(C)(C)C)c1 [TG101348]; details: top dose 10.24 µM
Protocol: as §1

[9] = compound: O=C(c1ccc(C(=O)N2CCC(N3CCCC3)CC2)c(Nc2ccccc2)c1)N1CCC(N2CCCC2)CC1 [UNC1215]; details: top dose 1 µM; top dose inferred
Protocol: as §1

## MDA-MB-361 (breast, adherent)
[1]
  AUC: 0.381
  IC50: 0.0295 µM
[2]
  AUC: 0.915
  IC50: > 10 µM
[3]
  AUC: 0.985
  IC50: > 20 µM
[4]
  AUC: 0.767
  IC50: 1480 µM
[5]
  AUC: 0.725
  IC50: 5.41 µM
[6]
  AUC: 0.983
  IC50: > 10 µM
[7]
  AUC: 0.98
  IC50: > 5.12 µM
[8]
  AUC: 0.949
  IC50: > 10.2 µM
[9]
  AUC: 0.987
  IC50: > 1 µM

## MIA-PaCa-2 (pancreas, adherent)
[1]
  AUC: 0.239
[2]
  AUC: 0.805
  IC50: 5.65 µM
[3]
  AUC: 0.985
  IC50: > 20 µM
[4]
  AUC: 0.416
  IC50: 144 µM
[5]
  AUC: 0.975
  IC50: > 20 µM
[6]
  AUC: 0.931
  IC50: > 10 µM
[7]
  AUC: 0.981
  IC50: > 5.12 µM
[8]
  AUC: 0.977
  IC50: > 10.2 µM
[9]
  AUC: 0.956
  IC50: > 1 µM

## ML-2 (acute myeloid leukaemia, suspension)
[1]
  AUC: 0.901
  IC50: > 1 µM
[2]
  AUC: 0.972
  IC50: > 10 µM
[3]
  AUC: 0.831
  IC50: 10.8 µM
[4]
  AUC: 0.436
  IC50: 171 µM
[5]
  AUC: 0.125
  IC50: 0.0979 µM
[6]
  AUC: 0.981
  IC50: > 10 µM
[7]
  AUC: 0.72
  IC50: 1.23 µM
[8]
  AUC: 0.616
  IC50: 1.28 µM
[9]
  AUC: 0.986
  IC50: > 1 µM

## MOLT-4 (lymphoblastic leukaemia, suspension)
[1]
  AUC: 0.954
  IC50: > 1 µM
[2]
  AUC: 0.854
  IC50: 5.68 µM
[3]
  AUC: 0.834
  IC50: 9.77 µM
[4]
  AUC: 0.671
  IC50: 677 µM
[5]
  AUC: 0.514
  IC50: 1.36 µM
[6]
  AUC: 0.975
  IC50: > 10 µM
[7]
  AUC: 0.965
  IC50: > 5.12 µM
[8]
  AUC: 0.758
  IC50: 2.95 µM
[9]
  AUC: 0.985
  IC50: > 1 µM

## NB17 (neuroblastoma, adherent)
[1]
  AUC: 0.857
  IC50: > 1 µM
[2]
  AUC: 0.903
  IC50: > 10 µM
[3]
  AUC: 0.958
  IC50: > 20 µM
[4]
  AUC: 0.525
  IC50: 295 µM
[5]
  AUC: 0.519
  IC50: 1.42 µM
[6]
  AUC: 0.98
  IC50: > 10 µM
[7]
  AUC: 0.956
  IC50: > 5.12 µM
[8]
  AUC: 0.781
  IC50: 4.92 µM
[9]
  AUC: 0.98
  IC50: > 1 µM

## NCI-H23 (lung adenocarcinoma, adherent)
[1]
  AUC: 0.419
  IC50: 0.0376 µM
[2]
  AUC: 0.866
  IC50: 8.8 µM
[3]
  AUC: 0.984
  IC50: > 20 µM
[4]
  AUC: 0.797
  IC50: 1860 µM
[5]
  AUC: 0.905
  IC50: > 20 µM
[6]
  AUC: 0.976
  IC50: > 10 µM
[7]
  AUC: 0.928
  IC50: > 5.12 µM
[8]
  AUC: 0.86
  IC50: 8.45 µM
[9]
  AUC: 0.987
  IC50: > 1 µM

## NCI-H69 (small cell lung carcinoma, suspension)
[1]
  AUC: 0.984
  IC50: > 1 µM
[2]
  AUC: 0.954
  IC50: > 10 µM
[3]
  AUC: 0.984
  IC50: > 20 µM
[4]
  AUC: 0.887
  IC50: > 4000 µM
[5]
  AUC: 0.45
  IC50: 0.899 µM
[6]
  AUC: 0.986
  IC50: > 10 µM
[7]
  AUC: 0.981
  IC50: > 5.12 µM
[8]
  AUC: 0.841
  IC50: 8.33 µM
[9]
  AUC: 0.98
  IC50: > 1 µM

## NCI-H187 (small cell lung carcinoma, suspension)
[1]
  AUC: 0.987
  IC50: > 1 µM
[2]
  AUC: 0.978
  IC50: > 10 µM
[3]
  AUC: 0.962
  IC50: > 20 µM
[4]
  AUC: 0.611
  IC50: 518 µM
[5]
  AUC: 0.786
  IC50: 9.41 µM
[6]
  AUC: 0.983
  IC50: > 10 µM
[7]
  AUC: 0.982
  IC50: > 5.12 µM
[8]
  AUC: 0.822
  IC50: 6.67 µM
[9]
  AUC: 0.985
  IC50: > 1 µM

## OVCAR-5 (ovary, adherent)
[1]
  AUC: 0.524
  IC50: 0.0737 µM
[2]
  AUC: 0.854
  IC50: > 10 µM
[3]
  AUC: 0.955
  IC50: > 20 µM
[4]
  AUC: 0.532
  IC50: 311 µM
[5]
  AUC: 0.816
  IC50: 14 µM
[6]
  AUC: 0.982
  IC50: > 10 µM
[7]
  AUC: 0.92
  IC50: > 5.12 µM
[8]
  AUC: 0.813
  IC50: 6.97 µM
[9]
  AUC: 0.967
  IC50: > 1 µM

## REH (B-cell leukaemia, suspension)
[1]
  AUC: 0.983
  IC50: > 1 µM
[2]
  AUC: 0.936
  IC50: > 10 µM
[3]
  AUC: 0.825
  IC50: 11.4 µM
[4]
  AUC: 0.518
  IC50: 280 µM
[5]
  AUC: 0.137
  IC50: 0.0966 µM
[6]
  AUC: 0.97
  IC50: > 10 µM
[7]
  AUC: 0.95
  IC50: > 5.12 µM
[8]
  AUC: 0.598
  IC50: 1.17 µM
[9]
  AUC: 0.978
  IC50: > 1 µM

## RH-41 (rhabdomyosarcoma, adherent)
[1]
  AUC: 0.827
  IC50: 0.48 µM
[2]
  AUC: 0.971
  IC50: > 10 µM
[3]
  AUC: 0.992
  IC50: > 20 µM
[4]
  AUC: 0.871
  IC50: 2770 µM
[5]
  AUC: 0.458
  IC50: 0.977 µM
[6]
  AUC: 0.975
  IC50: > 10 µM
[7]
  AUC: 0.992
  IC50: > 5.12 µM
[8]
  AUC: 0.81
  IC50: 4.33 µM
[9]
  AUC: 0.991
  IC50: > 1 µM

## Raji (Burkitt lymphoma, suspension)
[1]
  AUC: 0.984
  IC50: > 1 µM
[2]
  AUC: 0.962
  IC50: > 10 µM
[3]
  AUC: 0.942
  IC50: > 20 µM
[4]
  AUC: 0.638
  IC50: 584 µM
[5]
  AUC: 0.698
  IC50: 4.31 µM
[6]
  AUC: 0.939
  IC50: > 10 µM
[7]
  AUC: 0.984
  IC50: > 5.12 µM
[8]
  AUC: 0.947
  IC50: > 10.2 µM
[9]
  AUC: 0.988
  IC50: > 1 µM

## SAS (head and neck, adherent)
[1]
  AUC: 0.61
  IC50: 0.13 µM
[2]
  AUC: 0.8
  IC50: 5.47 µM
[3]
  AUC: 0.917
  IC50: > 20 µM
[4]
  AUC: 0.553
  IC50: 355 µM
[5]
  AUC: 0.616
  IC50: 2.71 µM
[6]
  AUC: 0.948
  IC50: > 10 µM
[7]
  AUC: 0.878
  IC50: > 5.12 µM
[8]
  AUC: 0.82
  IC50: 6.76 µM
[9]
  AUC: 0.982
  IC50: > 1 µM

## SBC-1 (small cell lung carcinoma, suspension)
[1]
  AUC: 0.985
  IC50: > 1 µM
[2]
  AUC: 0.987
  IC50: > 10 µM
[3]
  AUC: 0.983
  IC50: > 20 µM
[4]
  AUC: 0.77
  IC50: 1470 µM
[5]
  AUC: 0.133
  IC50: 0.0924 µM
[6]
  AUC: 0.961
  IC50: > 10 µM
[7]
  AUC: 0.974
  IC50: > 5.12 µM
[8]
  AUC: 0.891
  IC50: > 10.2 µM
[9]
  AUC: 0.967
  IC50: > 1 µM

## SCC-9 (head and neck, adherent)
[1]
  AUC: 0.647
  IC50: 0.179 µM
[2]
  AUC: 0.865
  IC50: > 10 µM
[3]
  AUC: 0.941
  IC50: > 20 µM
[4]
  AUC: 0.384
  IC50: 109 µM
[5]
  AUC: 0.305
  IC50: 0.301 µM
[6]
  AUC: 0.981
  IC50: > 10 µM
[7]
  AUC: 0.833
  IC50: 4.69 µM
[8]
  AUC: 0.821
  IC50: 8.19 µM
[9]
  AUC: 0.967
  IC50: > 1 µM

By IC50 is meant the dose at which the fit gives 50% viability; where the fit passes the top or lowest dose, that dose stands as a limit. For AUC the same curve is integrated over the 256-fold range of doses and scaled to a fraction; values near 1 show little effect. For some assays here: An inferred top dose comes from the curve model; the source does not state it.
